# Laboratory results from the supplement of paper PMC11417369.
# This is one part of the list.
# System: PfHDP1 homeodomain (GST-tagged)
# Assay: gcPBM binding intensity (ln(normalized median fluorescence intensity)); higher = stronger DNA binding
# How it was run: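 DNA-binding domains from P. falciparum, fused to GST and produced in E. coli, were put on an Agilent 4 × 180k double-stranded probe array for 1 h in 1× PBS holding 1% milk, 0.2 mg/ml BSA, 0.5% salmon testes DNA and 0.03% Triton X-100. Probes were primer-extended, 36 bp long and drawn from intergenic genomic regions, with negative controls included. After Alexa488 anti-GST antibody detection and a 488 nm scan, binding intensity was set as the highest Masliner-normalised natural-log median intensity across replicate spots of either probe orientation.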
row,Sequence,gcPBM binding intensity (ln)
1,GATATCAAAAAGATGGGTACATATATTTAAGTTCAT [XGTACX_site3822],6.05
2,TCTTTAATATATAGTGCATGTAAATTTTACAATAAT [TGCATGCA_site242],8.14
3,TATGGTATATACAACACACACACATATGTATATATA [CACACA_site927],6.88
4,AAGTTAACACAACAGGTGCAAGAAAAGTTTTTAATG,8.29
5,ATCAAGCACGGACACACACACACACCCAGACCCCCA [CACACA_site4360],6.69
6,AGTTAATGTTTATGTACACACGGTGGGTATATATTT [CACACA_site5785],6.76
7,ATATTATATATATGTGCACACAAAAGATATATATAT [CACACA_site2125],10.5
8,CTTAAAAAAACCTTAACACACATAAACTATAATTTA [CACACA_site3055],6.41
9,TTTTCATTTGAAAGTCGTACAAGTTCGAAAAAAGGA [XGTACX_site6840],6.47
10,ATAAGCAATAAAAAAACATGCATATTATTATCAACA [TGCATGCA_site1027],6.43
11,TGCAACAAAATAAACACACACACACTAACACAAAAA [CACACA_site7567],6.76
12,TTTAAAAATAAAAGTACACACATAAACATATTGCAC [CACACA_site6784],7.47
13,CTTTTTTATATCTCTACACACATTTATAACAATTTG [CACACA_site1398],6.98
14,TACGTAATAATATGCACACAAATAAACTTTATAAAT [CACACA_site3501],9.89
15,TTTAAACGTTATATAGTGCATGTCATATTTTATTAT,7.26
16,CAAAAAAGTAAAACGTGTACATATATACATAAAAAT [XGTACX_site5639],7.26
17,AAAACATACATATATACACACATATATATATATATA [CACACA_site1852],9.38
18,CAAACTACAAAATTTCGTACGCATATATTTCAAGTA [XGTACX_site5154],6.39
19,TATGTTGGTTCTTTTAGTACATAATTACTAAATGTA [XGTACX_site8616],6.43
20,TATACATTTATGTACACACACATATAGGTATATTTA [CACACA_site7408],6.36
21,AAAATATAATATATTACACACATATATTTTATAAGT [CACACA_site668],6.48
22,TTTTTTTAACGGTGTGCACACAATATACAGAAAAAA [CACACA_site1415],11.1
23,TATATACATTTATATACACACCTATATTTATTTATA [CACACA_site7014],6.66

row,Sequence,gcPBM binding intensity (ln)
1,ATTATATATATTTATGCACACAAAATATATTATATA [CACACA_site9244],10.1
2,ATGTACCTATTTCATACACACACACCCACAAACAAA [CACACA_site8232],7.2
3,TATATTGAAAATAAAACATGCAATCACTCATACATA [TGCATGCA_site248],6.38
4,CAACAATTTCGTCATACACACATTCAGAATCTATAT [CACACA_site7171],6.58
5,TATATATTAATATGCACACACAAGAAGTAATTATAA [CACACA_site3193],9.89
6,GGCATACACGGACACACACACACACCGACATATATA [CACACA_site4493],7.32
7,ATTATATAACAAAATAGTACATATATTTATTACATC [XGTACX_site336],6.19
8,TTATTCTAAAAAGGGTGTACACAAACGAATGGAAAA [XGTACX_site5662],7.6
9,AGCAGTCAGCAGGACAGTACACAGTAGCCAGGAAAT [XGTACX_site4877],6.13
10,AAAAAAAAAATTTAGGTGCATACAAATAAATTATAT [GTGCAC_site9521],8.45
11,ATGGCTAAAAGTTGCACACACACAAAAAAAAAAAAA [CACACA_site3289],9.6
12,TAATTTCTTATGTGCTATCTTATATAGAATTAATTT [CACACA_negctrl_site1726],6.61
13,TATAAAAAATAAAATACACACACATATATATATATA [CACACA_site8365],9.16
14,TGCACAAAATTATGCACACACCTAAAATTAATTTTT [CACACA_site5596],10.8
15,ATTCTAATCATATACACACCCATATATATATATATA [CACACA_site1774],9.38
16,GGCAATGATTTTAGGTGTACTTAAAAATCAAATTAA [XGTACX_site8587],5.98
17,ACAAAAAATAATCAAAATGTATATATATAATATAAT [XGTACX_negctrl_site593],6.44
18,TATTGAAGTTATAAAGTGCAGATAAATATGAGTTAT [GTGCAC_site9945],7.72
19,AAATGCCATATAATTTTTCTTAAACATAATTGTATA [CACACA_negctrl_site1665],5.96
20,ATTGTCTTCTCATATACACACTTTTATGACTATCTT [CACACA_site5696],7.08
21,TGTGTAATTATATATAAGGAGAAAGAATTCATTTTT [CACACA_negctrl_site670],6.3
22,AAAAAAAAATTTTTAAAATTTAGAAAATTTAAAAAA [GTGCAC_negctrl_site649],5.66
23,TAATAATGCAACCTCTGTACACAACATTATATCCAT [XGTACX_site7596],8.78

row,Sequence,gcPBM binding intensity (ln)
1,TATATATAAGCGTGTACACATTCTGAGTGTTGTATA [CACACA_site4502],7.02
2,GATTATACAAAATATACACACGTGTAGACAAATATT [CACACA_site4785],6.89
3,ATAATATTATTATAATGTACATATTTCGATATAAAT [XGTACX_site8808],6.74
4,ATATTTAATGTTAATTGTACATATTATATATATATA [XGTACX_site6095],8.49
5,AAAAAAATATATATTACACACATATATACCTATATA [CACACA_site5688],6.62
6,ATATATATTAATAGGTGTACATATAAAGTGTTATGT [XGTACX_site5464],6.83
7,TATGTGAATATAATCACACACAATACGGAAACCCAC [CACACA_site2725],7.04
8,AAAGTCTCATTAAAATGTACAAAATTTTCAGCTGTA [XGTACX_site6296],6.15
9,TTATATATAAACATAAAAAGAAATATATTATGTATA [CACACA_negctrl_site667],6.22
10,TAATTTTTAATTGTAGCATGCAGTATTTTTAAATAT [TGCATGCA_site140],6.52
11,AATACATTGTCAAATTGTACAAATTATAGAACTATT [XGTACX_site2222],6.47
12,CCATAAAAAGGATACACACACACACCCACATATATA [CACACA_site903],6.76
13,TGTTTTTATATATATGCACACAATGTACAAGTATAC [CACACA_site3529],10.4
14,AAAGGGGCATATATATGTACATATTATATATTTTGA [XGTACX_site2436],6.72
15,ATTATCCATGCATTTACACACACACCCAAAAAAATT [CACACA_site4101],7.67
16,AAAAAAAAATATATATAAAATTAAAAAATGTAATAT [GTGCAC_negctrl_site581],6.28
17,ATTAAAAAAAAAAGTATACACACTTCTTAATGTCAA [CACACA_site1244],6.61
18,TTATATCCCGTCCTTTATTAAAAAAATTTTTTTTCT [TGCATGCA_negctrl_site582],6.93
19,ATGGGTTGTTCAAATAGTACATATGTAGCCCACCAT [XGTACX_site3735],6.54
20,TTTTTTTTTTTTTGTGCATGTAGATTTATTGTTATA [TGCATGCA_site582],8.42
21,TTTAAATATATATTTAGTACTTATTCTTAAAATTTT [XGTACX_site624],6.38
22,AAAAAAGAATAGCACACACACATATATAAATATAAA [CACACA_site4518],6.97
23,GTTACATACAGATACACACACATATATATATATATA [CACACA_site4652],9.38

row,Sequence,gcPBM binding intensity (ln)
1,AATTATACATACATATATATATTTATATATATATAT [GTGCAC_negctrl_site462],8.69
2,GTAGAGGATTAAGAATGTACACATAAATACATATTT [XGTACX_site8874],6.3
3,TTAAAAATGATTGAATGTACAGATTAATATAATTTT [XGTACX_site7394],6.08
4,GATCTACATGAAAGGACACACAAATATATATATATA [CACACA_site84],9.07
5,ATAAATATGGAGCACACACACATAAACATACCTATA [CACACA_site6336],7.15
6,TAATTTTTGAAACACACACACATATATATATATATA [CACACA_site94],9.43
7,AAATATTATGTGGCAAGTACATAAAGAAAATGCTTA [XGTACX_site3356],6.07
8,ATAATAAGGTTAAGCACACATATTACAGATATAACT [CACACA_site5791],6.41
9,AATAATAATAATAATAGTACATATTATGAATATGAT [XGTACX_site5730],6.43
10,ATATATATTTTATTATGTACATATAAATATTACACA [XGTACX_site4062],6.69
11,GAAAAAATATATAAATGTACATATAATAATATCATA [XGTACX_site6788],6.44
12,ATTATTTTTTTATGTTGTACATAATATTTTTTAAAA [XGTACX_site1666],6.91
13,CTTAAAAATAACTGCACACAAAAATAAATACCTTAT [CACACA_site2793],7.67
14,TTCCAACATTGTTTTTGTACATAATTAACTGTTATT [XGTACX_site5224],6.81
15,TAATATTTATAAAATAGTACACAGAAAAAGCATTTT [XGTACX_site8948],6.67
16,ATATATATGGATGGACGTACGTATGTATGTAATTTC [XGTACX_site4135],7.12
17,TAATAATTTTATAAAGTGCATAAAAATAAAAATTTT,8.28
18,TTTTTTTTTTTTTTAATTAATTACCTTTGAATGTGT [CACACA_negctrl_site393],6.31
19,TCGTATATGGATTTTGCACACAATTTTAATTTAAAT [CACACA_site4635],10.7
20,ATGATTTGTCTGAAATGTACATATATATATATATAT [XGTACX_site5247],9.24
